From PubChem BioAssay AID1030 (National Center for Advancing Translational Sciences (NCATS), 2008)
In all, about 220,000 compounds went through this assay and about 16,000 (7.3%) were called active. Inconclusive results, whose numbers are uncertain, are shown with a selection of clear calls. Calls follow the shape of the dose curve; as a rule, active = well fitted inhibition curve with a large enough effect (not every such curve was filed as active); inconclusive = small, poorly fitted or top-dose-only effect, or another doubt; inactive = no such curve, though single readings can be large or run the other way. No potency is given beside an inconclusive call; the fits are too rough.

Target: Aldehyde dehydrogenase 1A1 (Homo sapiens) (UniProt P00352)
Test: qHTS Assay for Inhibitors of Aldehyde Dehydrogenase 1 (ALDH1A1)
Conditions: Purified ALDH1A1, NADH fluorescence, propionaldehyde substrate; series mostly up to 75.3 µM
Potency is read from the fitted curve at half-maximal effect; tags tell the direction and shape of the fitted curve.

Sequence of UniProt P00352 (P00352 whole entry, looked up): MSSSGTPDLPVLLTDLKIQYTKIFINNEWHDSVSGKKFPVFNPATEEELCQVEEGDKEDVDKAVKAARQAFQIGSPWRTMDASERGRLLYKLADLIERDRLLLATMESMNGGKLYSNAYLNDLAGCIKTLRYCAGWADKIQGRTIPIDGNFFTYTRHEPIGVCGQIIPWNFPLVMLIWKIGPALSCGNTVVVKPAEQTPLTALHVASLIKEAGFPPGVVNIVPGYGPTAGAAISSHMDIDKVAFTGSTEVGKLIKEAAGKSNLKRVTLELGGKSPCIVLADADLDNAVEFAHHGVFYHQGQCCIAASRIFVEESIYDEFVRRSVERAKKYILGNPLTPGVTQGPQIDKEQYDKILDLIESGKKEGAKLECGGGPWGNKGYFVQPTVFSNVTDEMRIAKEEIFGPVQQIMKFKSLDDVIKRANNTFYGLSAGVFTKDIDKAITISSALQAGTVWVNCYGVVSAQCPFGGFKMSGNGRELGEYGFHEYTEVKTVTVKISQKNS

Row | SMILES | Potency
1 | COc1ccc(OC)c(/C=N\NC(=O)CC(=O)NCCc2ccccc2)c1 | inconclusive [inhibitor, partial curve]
2 | O=C1N/C(=N/N=C/c2ccco2)SC1Cc1ccccc1 (stereo not drawn) | inactive
3 | Cc1cc2c(c(=O)n1C)C(Cc1ccccc1)C(C#N)=C(N)O2 (stereo not drawn) | inconclusive [inhibitor, partial curve]
4 | CC(/C=N\NC(=O)c1cc(C)oc1C)=C\c1ccccc1 | inactive
5 | COc1cc(-c2nnc(COC(=O)c3cc(C)nc4ccc(C)cc34)o2)cc(OC)c1OC | inconclusive [inhibitor, single point]
6 | O=C(O)c1ccccc1OCCOCCOc1ccccc1C(=O)O | inconclusive [inhibitor, single point]
7 | CC1Cc2cc(/C(O)=C3/C(=O)C(=O)N(Cc4ccco4)C3c3cccs3)ccc2O1 (stereo not drawn) | inactive
8 | O=C(CCc1nc(-c2ccccc2Cl)no1)NCc1ccco1 | inconclusive [inhibitor, single point]
9 | CN(CCc1ccccn1)C1CC(=O)N(c2ccc(Cl)cc2)C1=O (stereo not drawn) | active: 25.1 µM
10 | CC(C)Cn1c(SCC(=O)Nc2ncccn2)nc2ccccc21 | inconclusive [inhibitor, single point]
11 | Cc1nnc(NC(=O)c2ccc3ccccc3c2)o1 | inconclusive [inhibitor, single point]
12 | COc1cc(NC(=O)Cc2c(C(=O)O)n(C)c3ccccc23)cc(OC)c1OC | inconclusive [inhibitor, partial curve]
13 | CNC(=O)c1cc2c(=O)n3cccc(C)c3nc2n(C(C)C)c1=N | inconclusive [inhibitor, partial curve]
14 | COc1ccc2c(c1)O[C@@H](c1ccc3c(c1)OCO3)[C@H](OC(=O)Nc1ccc(C)c(Br)c1)C2=O | inactive
15 | CNC(=O)c1oc(-c2ccc(Cl)cc2)nc1C | inactive
16 | Cn1cccc1Cc1nnc(SCC(=O)Nc2nccs2)n1CCc1ccccc1 | inconclusive [inhibitor, partial curve]
17 | C=CCNC(=O)NC(=O)COC(=O)/C(C#N)=C/c1cc(C)n(CCC(C)C)c1C | inconclusive [inhibitor, partial curve]
18 | CCOCCn1c(CN2CCN(c3cccc(Cl)c3)CC2)nc2c1c(=O)n(C)c(=O)n2C | inconclusive [inhibitor, single point]
19 | O=C1CC(c2ccccc2F)c2cc3c(cc2N1)CCC3 (stereo not drawn) | inactive
20 | Cc1ccc(S(=O)(=O)Oc2ccc(/C=N/NC(=O)c3cccnc3)cc2)cc1 | active: 12.6 µM
21 | Cc1c(C(=O)N(Cc2cccs2)C2CCS(=O)(=O)C2)oc2ccccc12 (stereo not drawn) | inconclusive [inhibitor, single point]
22 | O=C(c1nc2ccc(Cl)cn2c1CNCCn1ccnc1)N1CCCCCCC1 | inconclusive [inhibitor, single point]
23 | CC/C=C\C[C@H]1C(=O)CC[C@@H]1CC(=O)O | inactive
24 | COc1ccccc1-c1nnc(NC(=O)C(C)Sc2nncn2C)s1 (stereo not drawn) | inactive
25 | CCSC1=C(C#N)C(c2ccccc2Cl)CC(=O)N1 (stereo not drawn) | inconclusive [inhibitor, partial curve]

Row | SMILES | Potency
26 | COc1ccc(NC(=O)c2cc(S(=O)(=O)NCC3COc4ccccc4O3)ccc2F)cc1 (stereo not drawn) | inconclusive [inhibitor, single point]
27 | N#CCCN(C(=O)CCl)c1cccc(Cl)c1 | active: 0.112 µM
28 | COc1cc(C(=O)NCc2ccc(-c3nc4ccccc4s3)cc2)cc(OC)c1OC | inactive
29 | O=C1CC(C(=O)N(c2cccc(F)c2)C(C(=O)NC2CCCC2)c2ccccn2)CS1 (stereo not drawn) | active: 10 µM
30 | CCOC(=O)c1sc(NC(=O)CSc2nc3ccccc3s2)c(C(=O)OCC)c1C | inactive
31 | COC(=O)C1C(O)=C(C=Nc2ccccc2)C(=O)CC1(C)C (stereo not drawn) | inconclusive [inhibitor, partial curve]
32 | O=C(c1cccc(Cl)c1)N1CCN(c2ncnc3c2cnn3-c2ccccc2)CC1 | active: 7.94 µM
33 | O=C(CCc1nc2ccccc2[nH]1)Nc1ccc2c(c1)OCO2 | active: 10 µM
34 | CCOc1cc(-c2nc(C)c(C(C)=O)n2O)ccc1OCC(=O)Nc1cccc(C)c1 | inconclusive [inhibitor, single point]
35 | COc1ccc(CCC(=O)Nc2cccc(Cl)c2)cc1 | inactive
36 | N#Cc1c(N)nc2c(c1-c1ccc(Br)s1)CCCC2 | inactive
37 | CC(C)(C)NC(=O)CN1CCN(C(=O)CCl)CC1 | active: 0.316 µM
38 | O=C(c1ccc(S(=O)(=O)c2ccccc2Cl)c([N+](=O)[O-])c1)N1CCCCCC1 | inconclusive [inhibitor, single point]
39 | COc1ccccc1-c1nc2ccccc2nc1-c1ccccc1 | inconclusive [inhibitor, single point]
40 | Cc1ccc(N/N=C/c2ccc3c(c2)OCCO3)cc1Cl | active: 12.6 µM
41 | Cc1ccc(S(=O)(=O)N2CCC(=O)N([C@H](COCc3ccc(Cl)cc3)Cc3ccccc3)CC2)cc1 | inconclusive [inhibitor, partial curve]
42 | Cc1cc(C)c2[nH]c(=O)c(C(c3nnnn3CC3CCCO3)N3CCCC(C)C3)cc2c1 (stereo not drawn) | inconclusive [inhibitor, partial curve]
43 | CC(=O)Nc1cccc(-c2nc3ccccc3s2)c1 | inactive
44 | Cc1cc(-c2ccccc2)n2nc(C)c(C#N)c2n1 | inconclusive [inhibitor, partial curve]
45 | N/C(CSc1nc(-c2ccccc2)c(-c2ccccc2)o1)=N\O | inconclusive [inhibitor, single point]
46 | Cc1ccc(-n2[nH]c(C)c(C=Nc3ccc(S(=O)(=O)Nc4nccs4)cc3)c2=O)cc1C | inactive
47 | COCc1nnc(NC(=O)CSc2ccc(C)cc2)s1 | active: 20 µM
48 | CCOC(=O)C1CCCN(C(=O)c2cnn3c(C(F)(F)F)cc(-c4ccccc4)nc23)C1 (stereo not drawn) | inconclusive [inhibitor, single point]
49 | COc1ccc(/C=C2\CN(Cc3ccccc3)C/C(=C\c3ccc(OC)cc3OC)C2=O)c(OC)c1 | active: 17.8 µM
50 | Cc1[nH]c2ccccc2c1/C=N/Nc1ccc([N+](=O)[O-])cc1 | inactive

Row | SMILES | Potency
51 | COc1cc(/C=N/NC(=O)CCNC(=O)c2ccccc2Cl)ccc1O | inconclusive [inhibitor, single point]
52 | CCOC(=O)c1c(NC(=O)CSc2n[nH]c(CNc3ccccc3)n2)sc(C)c1C | inactive
53 | COC(=O)C1=C2SC(C)C(=O)N2C(N)=C(C#N)C1c1ccc(OC)c(OC)c1 (stereo not drawn) | active: 12.6 µM
54 | COc1cccc(CN(C)C(=O)c2cc(COc3ccc4ncccc4c3)on2)c1 | inactive
55 | COc1ccc(CC(=O)NNC(=S)Nc2ccccc2)cc1Cl | inconclusive [inhibitor, single point]
56 | Cc1cccc(NC(=O)CCC(=O)OCC(=O)c2ccc(Oc3ccc([N+](=O)[O-])cc3)cc2)c1 | active: 7.08 µM
57 | N#CCc1c(C#N)c(N)nc(N2CCN(S(=O)(=O)c3ccccc3)CC2)c1C#N | inconclusive [inhibitor, partial curve]
58 | CCOc1ccc(NC(=S)Nc2ccc(Br)cc2Cl)cc1 | inconclusive [inhibitor, single point]
59 | Cc1cccc(OCCCC(=O)Nc2ccc(S(=O)(=O)Nc3onc(C)c3C)cc2)c1C | inconclusive [inhibitor, single point]
60 | COc1cccc(-c2nnc(Nc3nc4c(F)cccc4s3)o2)c1 | inconclusive [inhibitor, single point]
61 | Cc1ccc(OCC(=O)Nc2ccc(Cl)cc2)c(-n2nc3ccccc3n2)c1 | inconclusive [inhibitor, single point]
62 | COc1ccc(-c2cc(C(=O)O)c(C)o2)cc1OC | inconclusive [inhibitor, single point]
63 | NS(=O)(=O)c1ccc(NC(=S)NC(=O)c2ccc3c(c2)OCO3)cc1 | inconclusive [inhibitor, single point]
64 | CCc1cc2c(=O)c(-c3nc4ccccc4n3C)c(C)oc2c(CN2CCN(CCO)CC2)c1O | inconclusive [inhibitor, partial curve]
65 | CC1=CC(C)C2(CO)COC(c3ccc(O)cc3)C1C2C (stereo not drawn) | inconclusive [inhibitor, single point]
66 | CCC(C)c1ccc(NC(=O)C/C(C)=N/NC(=O)c2cnccn2)cc1 (stereo not drawn) | inconclusive [inhibitor, single point]
67 | Cc1nc2cnc(N(C)C)nc2n(Cc2cccs2)c1=O | inconclusive [inhibitor, single point]
68 | O=C(Nc1cnn(Cc2c(Cl)cccc2Cl)c1)c1ccc([N+](=O)[O-])cc1 | inconclusive [inhibitor, single point]
69 | Cc1ccc(-n2cc(-c3ccccc3)c3c(NN4CCOCC4)ncnc32)cc1 | inactive
70 | COc1cc(/C=N/n2c(C)n[nH]c2=S)ccc1OCc1ccccc1 | inconclusive [inhibitor, single point]
71 | Cc1cccc(N2CCN(S(=O)(=O)c3cnc[nH]3)CC2)c1C | inactive
72 | O=C(CN1CCCCC1)NC(=O)NC1CCCC1 | inconclusive [inhibitor, partial curve, poor fit]
73 | Cc1cccc(C)c1Nc1oc(-c2ccccc2)nc1-c1cccc2ccccc12 | inactive
